The whole screen tested about 310,000 compounds, of which about 18,000 (5.8%) were called active. The inconclusive results got no clear call from the source; some entries with a clear call stand among them for comparison. Calls follow the shape of the dose curve; as a rule, active = well fitted inhibition curve with a large enough effect; inconclusive = small, poorly fitted or top-dose-only effect, or another doubt; inactive = no such curve, though single readings can be large or run the other way. Potencies of inconclusive entries are left out as doubtful fits.
Experiment: Primary qHTS for delayed death inhibitors of the malarial parasite plastid, 48 hour incubation
Conditions: P. falciparum luciferase growth in erythrocytes; series mostly up to 28.7 µM; activity change, negative = inhibition: at the top concentration
How it was run: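 Erythrocytes infected with P. falciparum carrying an integrated firefly luciferase reporter (2% hematocrit, 0.1% parasitemia final) were exposed to compounds in RPMI 1640 with 0.5% Albumax at 37 C, 5% CO2. Growth inhibition was scored as reduced luminescence.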
% is scaled to controls: 0 for no effect and ±100 for the full control effect; potency is read from the fitted curve at half-maximal effect; tags tell the direction and shape of the fitted curve.

Question: Which Potency does the source give for C=CCSc1nc2c(c(C3CC=CCC3)c1C#N)CCC2 (stereo unspecified) here?
Answer: Its Potency is inconclusive [inhibitor, single point].

Question: For CCOCCCN(C(=O)c1ccco1)C(C(=O)NC1CCCC1)c1cccc(OC)c1OC (stereo unspecified), which Potency is on record?
Answer: The Potency was inconclusive [inhibitor, single point].

Question: Which Potency does the source give for CCCCN(C(=O)Cc1coc2cc(C)c(C)cc12)c1c(N)n(Cc2ccccc2)c(=O)[nH]c1=O here?
Answer: Its Potency is inconclusive [inhibitor, partial curve, poor fit].

Question: For O=C(C1CCCCC1)N(Cc1nc2sc3c(c2c(=O)[nH]1)CCCC3)Cc1cccs1, which “activity change, negative = inhibition” value is on record?
Answer: Its value is inactive: 17.9%.

Question: For COc1cccc(/C=C2\SC(=S)N(CCC(=O)Nc3ccc(O)cc3)C2=O)c1, which “activity change, negative = inhibition” value is on record?
Answer: Its value is inactive: 56.6%.

Question: For CCN(CC)C(=O)CSc1nc(-c2ccco2)cc(C(F)(F)F)c1C#N, which Potency is on record?
Answer: Its Potency is inconclusive [inhibitor, single point].

Question: Which Potency does the source give for Cc1ccccc1NC(=O)C(C)Sc1nnc(-c2ccncc2)n1CC1CCCO1 (stereo unspecified) here?
Answer: The Potency was inconclusive [inhibitor, single point].

Question: With CCCCc1nnc(NC(=O)c2ccc3c(=O)n4c(nc3c2)CCC4)s1 as the molecule, how does the Potency read?
Answer: The Potency was inconclusive [inhibitor, partial curve, poor fit].

Question: Which Potency does the source give for COC(=O)C1=C(C)NC(C)=C(C(=O)OC)C1C(=O)OC(C)C(=O)c1ccccc1 (stereo unspecified) here?
Answer: Its Potency is inconclusive [inhibitor, single point].

Question: With COc1cccc(CCNC(=O)COc2cccc3c2OC(C)(C)C3)c1 as the molecule, how does the Potency read?
Answer: The Potency was inconclusive [inhibitor, single point].

Question: For Clc1ccc2c(N3CCCC3)ccnc2c1, which Potency is on record?
Answer: Its Potency is active: 3.7 µM.

Question: For COc1ccc(C(=O)CCC(=O)NCc2cc(OC)cc(OC)c2)cc1, which Potency is on record?
Answer: Its Potency is inconclusive [inhibitor, partial curve, poor fit].

Question: Which Potency does the source give for CC(=O)Nc1ccc(C2(c3ccc(NC(C)=O)cc3)NC(=O)c3ccccc32)cc1 here?
Answer: Its Potency is active: 1.31 µM.

Question: Which Potency does the source give for C=CCn1cccc(C(=O)Nc2cc(OC)ccc2OC)c1=O here?
Answer: The Potency was inconclusive [inhibitor, single point].

Question: For CCOc1ccc(S(=O)(=O)NCCCN2CCOCC2)cc1, which “activity change, negative = inhibition” value is on record?
Answer: The value was inactive: 2.16%.

Question: For CCOC(=O)C1(Cc2cccc(OC)c2)CCN(C(C)COC)CC1 (stereo unspecified), which Potency is on record?
Answer: The Potency was inconclusive [inhibitor, full curve].

Question: With COc1ccccc1Nc1nnc(SCc2nnc(-c3cc(OC)c(OC)c(OC)c3)o2)s1 as the molecule, how does the Potency read?
Answer: The Potency was inconclusive [inhibitor, partial curve].

Question: Which Potency does the source give for CN(Cc1cccs1)C(=O)c1cccc(S(=O)(=O)N2CCCCCC2)c1 here?
Answer: The Potency was inconclusive [inhibitor, partial curve, poor fit].

Question: For CCOC(=O)c1ccc(-c2ccc3c(c2)CCC3)nc1C, which activity change, negative = inhibition is on record?
Answer: Its activity change, negative = inhibition is inactive: -6.65% [at 0.00184 µM].

Question: With COc1cc(OC)c(OC)cc1C=NCC1(c2ccccc2)CCCC1 as the molecule, how does the Potency read?
Answer: Its Potency is inconclusive [inhibitor, partial curve].

Question: Which Potency does the source give for CNC(=O)c1c(NC(=O)C(C)C)sc2c1CCC2 here?
Answer: The Potency was active: 2.33 µM.

Question: Which Potency does the source give for Cc1ccc(C(=O)N2CC(=O)Nc3ccc(C)cc3C2c2ccccc2)cc1 (stereo unspecified) here?
Answer: Its Potency is inconclusive [inhibitor, single point].

Question: For Cc1cc(C)n(-c2nc3ccccc3nc2N2CCC(C)CC2)n1, which Potency is on record?
Answer: Its Potency is active: 9.28 µM.

Question: With CCOc1ccc(C(C)(C)C)cc1S(=O)(=O)N1CC(C)OC(C)C1 (stereo unspecified) as the molecule, how does the Potency read?
Answer: Its Potency is active: 11.7 µM.

Question: For COc1ccc(C)cc1-n1nnnc1SCc1nc2ccccc2c(=O)[nH]1, which Potency is on record?
Answer: Its Potency is inconclusive [inhibitor, partial curve].

Question: With Cc1cc(NC(=O)CSc2nnc(Cn3c(=O)sc4ccccc43)n2-c2ccccc2C)no1 as the molecule, how does the Potency read?
Answer: Its Potency is inconclusive [inhibitor, partial curve].

Question: For CC(NCC(O)COc1ccccc1)C1COc2ccccc2O1 (stereo unspecified), which activity change, negative = inhibition is on record?
Answer: The activity change, negative = inhibition was inactive: -1.73% [at 0.00184 µM].

Question: With CCN(c1ccccc1)S(=O)(=O)c1ccc(F)c(C(=O)O)c1 as the molecule, how does the “activity change, negative = inhibition” value read?
Answer: Its value is inactive: 1.56%.

Question: With O=C(O)CC1=C(O)C(=O)N(c2ccccc2)C1c1ccc(Br)cc1 (stereo unspecified) as the molecule, how does the Potency read?
Answer: Its Potency is inconclusive [inhibitor, partial curve].

Question: For CCC(C)NS(=O)(=O)c1ccc(S(=O)(=O)N(CCc2ccc(OC)c(OC)c2)Cc2cccs2)cc1 (stereo unspecified), which Potency is on record?
Answer: Its Potency is inconclusive [inhibitor, partial curve].

Question: For CC(C)(C)NC(=O)C(Cc1ccccc1)NS(=O)(=O)c1ccc2c(c1)CCC(=O)N2 (stereo unspecified), which Potency is on record?
Answer: Its Potency is inconclusive [inhibitor, single point].

Question: Which Potency does the source give for COc1cccc(-n2cnnc2SC(C)C(=O)NC2CCCC2)c1 (stereo unspecified) here?
Answer: The Potency was inconclusive [inhibitor, single point].

Question: Which Potency does the source give for CCCCCn1c(=O)c(-c2nc3ccccc3[nH]2)c(O)c2ccccc21 here?
Answer: Its Potency is inconclusive [inhibitor, full curve].

Question: With Oc1ccc(-c2nc3ncccn3c2Nc2ccc3c(c2)OCO3)cc1 as the molecule, how does the Potency read?
Answer: Its Potency is inconclusive [inhibitor, single point].

Question: Which “activity change, negative = inhibition” value does the source give for c1ccc(-c2ncnc3nc4n(c23)CCC4)cc1 here?
Answer: Its value is inactive: 10%.

Question: For Cc1ccc(N=C2NC(=O)/C(=C/c3cccn3C)S2)c(C)c1, which Potency is on record?
Answer: The Potency was inconclusive [inhibitor, single point].

Question: Which Potency does the source give for O=C(N/N=C/c1ccccn1)c1cccs1 here?
Answer: The Potency was inconclusive [inhibitor, partial curve, poor fit].

Question: Which “activity change, negative = inhibition” value does the source give for C=C(C)CSc1nc2nc(C)cc(C)n2n1 here?
Answer: The value was inactive: 16.7%.

Question: With CCc1ccc(NC(=O)CCn2nc(C)c(S(=O)(=O)N3CCCCC3)c2C)cc1 as the molecule, how does the “activity change, negative = inhibition” value read?
Answer: The value was inactive: 8.67%.

Question: For Cc1ccc(S(=O)(=O)N2CCN(C(=O)CCCOc3ccc(Cl)cc3C)CC2)cc1, which Potency is on record?
Answer: The Potency was inconclusive [inhibitor, single point].

Question: For O=C(Nc1ccc(S(=O)(=O)NCC2CCCO2)cc1)c1ccc(Cl)cc1[N+](=O)[O-] (stereo unspecified), which Potency is on record?
Answer: The Potency was inconclusive [inhibitor, partial curve, poor fit].

Question: For Cc1cnc(C(=O)OCC(=O)N(C)CC(=O)Nc2ccccc2Cl)cn1, which Potency is on record?
Answer: The Potency was inconclusive [inhibitor, single point].

Question: With N#C/C(=C\c1cn(Cc2ccc(F)cc2)c2ccccc12)C(=O)NCc1ccco1 as the molecule, how does the “activity change, negative = inhibition” value read?
Answer: The value was inactive: 17.1%.

Question: Which Potency does the source give for COc1ccc(CCNC(=O)CSCc2ccc(Cl)cc2)cc1OC here?
Answer: Its Potency is inconclusive [inhibitor, partial curve, poor fit].

Question: Which Potency does the source give for O=C(NCc1ccco1)C12CN(Cc3ccccc3)CC1C(c1cccc([N+](=O)[O-])c1)=NO2 (stereo unspecified) here?
Answer: Its Potency is inconclusive [inhibitor, single point].

Question: Which Potency does the source give for Nn1c(SCc2cccc(C(F)(F)F)c2)nnc1-c1ccco1 here?
Answer: Its Potency is inconclusive [inhibitor, single point].

Question: Which Potency does the source give for COC(=O)c1c(NC(=O)c2ccoc2C)sc(C)c1C here?
Answer: The Potency was inconclusive [inhibitor, full curve, poor fit].

Question: Which Potency does the source give for O=S(=O)(c1ccc(Cl)cc1)c1nc(-c2ccco2)oc1N1CCCCC1 here?
Answer: Its Potency is inconclusive [inhibitor, partial curve].

Question: Which Potency does the source give for CC(=O)c1cccc(NC(=O)CN2CCc3cc4c(cc3C2C)OCCCO4)c1 (stereo unspecified) here?
Answer: The Potency was inconclusive [inhibitor, single point].

Question: For Cc1cc(C)c(S(=O)(=O)N2CCCCC2)cc1N(C)S(=O)(=O)c1ccc(Cl)cc1, which Potency is on record?
Answer: Its Potency is inconclusive [inhibitor, full curve].

Question: For O=C(c1ccco1)N1CCN(Cc2cc(=O)c(OCc3cccc(F)c3)co2)CC1, which Potency is on record?
Answer: The Potency was inconclusive [inhibitor, single point].

Question: Which Potency does the source give for CCN(CC)S(=O)(=O)c1ccc(N(C)Cc2ccc(C(F)(F)F)cc2)nc1 here?
Answer: Its Potency is inconclusive [inhibitor, partial curve].

Question: With CC1CCCC(NC(=O)C2CCN(S(=O)(=O)N3CCC4(CC3)OCCO4)CC2)C1C (stereo unspecified) as the molecule, how does the Potency read?
Answer: The Potency was inconclusive [inhibitor, full curve, poor fit].

Question: Which “activity change, negative = inhibition” value does the source give for COc1cc(NC(=O)CCCNC(=O)c2ccc(Cl)cc2)cc(OC)c1OC here?
Answer: Its value is inactive: 4.15%.

Question: Which Potency does the source give for CC1CCc2c(nc3ncnn3c2N2CCN(c3ccccc3F)CC2)C1 (stereo unspecified) here?
Answer: The Potency was inconclusive [inhibitor, single point].

Question: For Cc1ccc(C)c(Nc2nc3c(S(=O)(=O)c4ccccc4)nnn3c3ccccc23)c1, which Potency is on record?
Answer: Its Potency is inconclusive [inhibitor, single point].

Question: With Cc1cc(C)c(NC(=O)NC2CCCCC2)c(C)c1 as the molecule, how does the “activity change, negative = inhibition” value read?
Answer: Its value is inactive: -3.35%.

Question: Which “activity change, negative = inhibition” value does the source give for O=C(Nc1cccc(Br)c1)c1ccccc1-c1ccccc1 here?
Answer: Its value is inactive: -17.3%.

Question: For O=C(NC(=O)N1CCN(c2cccc(Cl)c2)CC1)c1ccccc1, which Potency is on record?
Answer: The Potency was inconclusive [inhibitor, partial curve].

Question: For OC(CN1CCOCC1)Cn1c2ccccc2c2ccccc21 (stereo unspecified), which Potency is on record?
Answer: Its Potency is inconclusive [inhibitor, full curve, poor fit].

Question: Which Potency does the source give for Cc1nn(Cc2ccccc2)c(C)c1NC(=O)CSc1nc2c(c(C(F)(F)F)n1)CCc1ccccc1-2 here?
Answer: The Potency was active: 5.22 µM.

Question: With Cc1cc(C)nc(-n2nc(C)cc2NC(=O)c2cccc(S(=O)(=O)N3CCCCC3)c2)n1 as the molecule, how does the Potency read?
Answer: Its Potency is inconclusive [inhibitor, full curve, poor fit].

Question: With CCOc1cc(C(C(=O)NCC2CCCO2)N(C(=O)Cn2nnc3ccccc32)c2ccccc2C)ccc1O (stereo unspecified) as the molecule, how does the Potency read?
Answer: Its Potency is inconclusive [inhibitor, single point].

Question: For COc1ccc(C)cc1S(=O)(=O)N1CCC2(CC1)OCCN2S(=O)(=O)c1cccs1, which Potency is on record?
Answer: The Potency was inconclusive [inhibitor, partial curve].

Question: With COc1ccc(C2(C(=O)c3ccccc3)C(=O)c3ccccc3C2=O)cc1 as the molecule, how does the Potency read?
Answer: Its Potency is inconclusive [inhibitor, single point].

Question: Which “activity change, negative = inhibition” value does the source give for Cc1ccc(NC(=O)CC2SC3=NCCN3C2=O)cc1 (stereo unspecified) here?
Answer: The value was inactive: -7.41%.

Source: PubChem BioAssay AID504832 (National Center for Advancing Translational Sciences (NCATS), 2011)
